Converted amounts (≈) assume the structure as drawn. Read-outs that look alike come from different tables or passages of the source.
Key:
C. albicans [1] = format: cell-based, Candida albicans; conditions: for MICs against the four tested pathogenic fungi: C. albicans, C. tropicalis, C. parapsilosis and C. neoformans; for MIC100 C. albicans: Table 3, two-fold dilution in PBS 20 mM pH 6.0, 1 × 10^6 CFU mL^−1, 20 h at 30 °C, MTT staining, mean ± SD, n = 3; for MIC100 C. albicans / MIC C.albicans: microdilution, 96-well plates; for MIC C.albicans: Table S5, concentration of the drug in ungrown fungus wells
Source text: (§1) Each experiment was replicated three times.

C. parapsilosis = experiment: Minimal inhibitory concentration (MIC), microdilution method; format: cell-based; conditions: Table 3, 96-well plates, PBS 20 mM pH 6.0, 1 × 10^6 CFU mL^−1, 20 h at 30 °C, MTT staining, mean ± SD, n = 3
Source text: as §1

C. tropicalis = experiment: as above; format: cell-based, Candida tropicalis; conditions: Table 3, 96-well plates, PBS 20 mM pH 6.0, 1 × 10^6 CFU mL^−1, 20 h at 30 °C, MTT staining, mean ± SD, n = 3
Source text: as §1

C. neoformans = conditions: Table 3; microdilution, 96-well plates, PBS 20 mM pH 6.0, 1 × 10^6 CFU mL^−1, 20 h at 30 °C, MTT staining; mean ± SD, n = 3
[2] = test system: fluconazole‐resistant C. albicans; conditions: at 1 × MIC; 28 °C, 12 h, absorbance 540 nm
C. albicans [3] = conditions: for splenic index / thymic index: n = 3
Method: The systemic C. albicans infection mouse model was established following the reported reference.^[ [22] ^] Cyclophosphamide (150 mg kg^−1 d^−1) was first injected intraperitoneally for 3 days to disrupt the immunity of female Kunming mice (Experimental Animal Center of Zhengzhou University, SCXK Yu 2021–0009). […] The injections were given once every 24 h during the first week and once every 48 h during the second week. Survival rates and body weights of the mice in each group were recorded during treatment. At 0, 7, and 14 d of treatment, duplicate samples (n = 3) of the spleen and thymus were collected from each group to determine the immune organ index.^[ [54] ^] The ratio of organ weight to body weight was adopted to describe the immune organ index. At 14 d of treatment, liver, lung, kidney, and spleen tissues were collected from each group of mice and immersed in 4% paraformaldehyde fixative. Subsequently, the tissue samples were embedded in paraffin, followed by sectioned and stained with hematoxylin‐eosin (H&E). Finally, optical microscopy was used to observe the pathological changes in the organ tissues of the mice.

C. albicans [4] = conditions: 1 × MIC in SD broth, 28 °C, 3, 6 and 9 h
[5] = Day 7, 0.4 mg kg^−1 intraperitoneally
[6] = Day 7, 0.8 mg kg^−1 intraperitoneally

Compound | MICs against the four tested pathogenic fungi (C. albicans [1]) | MIC100 C. albicans (C. albicans [1]) | MIC C.albicans (C. albicans [1]) | MIC100 C. parapsilosis (C. parapsilosis) | MIC100 C. tropicalis (C. tropicalis) | MIC100 C. neoformans (C. neoformans) | inhibition of growth of fluconazole‐resistant C. albicans [2] | average increased weight after 14 days of treatment (C. albicans [3]; 0.4 mg kg^−1 intraperitoneally, n = 10) | survival rate (C. albicans [3]; 0.8 mg kg^−1 AFP‐13 intraperitoneally, 14 days, n = 10) | average increased weight after 14 days of treatment (C. albicans [3]; 0.8 mg kg^−1 intraperitoneally, n = 10) | pathological changes of liver, lung, kidney and spleen (H&E sections) (C. albicans [3]; 0.4 and 0.8 mg kg^−1, 14th day of treatment) | splenic index (C. albicans [3]; [5]) | thymic index (C. albicans [3]; [5]) | splenic index (C. albicans [3]; [6]) | thymic index (C. albicans [3]; [6]) | thymic index (C. albicans [3]; Day 14, 0.4 mg kg^−1 intraperitoneally) | thymic index (C. albicans [3]; Day 14, 0.8 mg kg^−1 intraperitoneally) | morphological and ultrastructural changes of C. albicans cells (SEM, TEM) (C. albicans [4])
CC[C@H](C)[C@H](NC(=O)[C@H](CCCNC(=N)N)NC(=O)[C@H](Cc1c[nH]c2ccccc12)NC(=O)[C@H](CC(C)C)NC(=O)[C@@H](N)CCCNC(=N)N)C(=O)N[C@H](C(=O)N[C@H](C(=O)N[C@H](C(=O)N[C@@H](CCCNC(=N)N)C(=O)N[C@@H](CCCNC(=N)N)C(=O)N[C@@H](C)C(=O)N[C@@H](CCCNC(=N)N)C(N)=O)[C@@H](C)CC)C(C)C)C(C)C [AFP‐8] | < 10 µg/mL | 7.67 ± 0.10 µg/mL (≈ 4.81 µM) | 7.81 µg/mL (≈ 4.9 µM) | 2.86 ± 0.41 µg/mL (≈ 1.8 µM) | 3.62 ± 0.14 µg/mL (≈ 2.27 µM) | 3.77 ± 0.07 µg/mL (≈ 2.37 µM) | – | – | – | – | – | – | – | – | – | – | – | –
CC[C@H](C)[C@H](NC(=O)[C@H](CC(C)C)NC(=O)[C@@H](NC(=O)[C@@H](NC(=O)[C@H](CCCNC(=N)N)NC(=O)[C@H](Cc1c[nH]c2ccccc12)NC(=O)[C@H](CC(C)C)NC(=O)[C@@H](N)CCCNC(=N)N)[C@@H](C)CC)C(C)C)C(=O)N[C@@H](CCCNC(=N)N)C(=O)N[C@@H](CCCNC(=N)N)C(=O)N[C@@H](C)C(=O)N[C@@H](CCCCN)C(N)=O [AFP‐10] | < 10 µg/mL | 3.51 ± 0.09 µg/mL (≈ 2.22 µM) | – | 2.61 ± 0.33 µg/mL (≈ 1.65 µM) | 2.32 ± 0.12 µg/mL (≈ 1.47 µM) | 3.80 ± 0.04 µg/mL (≈ 2.41 µM) | more than 99% | – | – | – | – | – | – | – | – | – | – | –
CC[C@H](C)[C@H](NC(=O)[C@H](CC(C)C)NC(=O)[C@@H](NC(=O)[C@@H](NC(=O)[C@H](CCCNC(=N)N)NC(=O)[C@H](Cc1c[nH]c2ccccc12)NC(=O)[C@H](CC(C)C)NC(=O)[C@@H](N)CCCNC(=N)N)[C@@H](C)CC)C(C)C)C(=O)N[C@@H](CCCNC(=N)N)C(=O)N[C@@H](CCCCN)C(=O)N[C@@H](C)C(=O)N[C@@H](CCCNC(=N)N)C(N)=O [AFP‐11] | < 10 µg/mL | 7.48 ± 0.32 µg/mL (≈ 4.74 µM) | – | 5.80 ± 0.88 µg/mL (≈ 3.67 µM) | 2.35 ± 0.27 µg/mL (≈ 1.49 µM) | 2.92 ± 0.37 µg/mL (≈ 1.85 µM) | – | – | – | – | – | – | – | – | – | – | – | –
CC[C@H](C)[C@H](NC(=O)[C@H](CCCNC(=N)N)NC(=O)[C@H](Cc1c[nH]c2ccccc12)NC(=O)[C@H](CCCNC(=N)N)NC(=O)[C@@H](N)C(C)C)C(=O)N[C@@H](CCCNC(=N)N)C(=O)N[C@@H](CC(C)C)C(=O)N[C@H](C(=O)N[C@@H](CCCNC(=N)N)C(=O)N[C@@H](CCCCN)C(=O)N[C@@H](CC(C)C)C(=O)N[C@@H](C)C(N)=O)[C@@H](C)CC [AFP‐13] | < 10 µg/mL | 6.26 ± 0.34 µg/mL (≈ 3.96 µM) | 7.81 µg/mL (≈ 4.95 µM) | 9.32 ± 0.28 µg/mL (≈ 5.9 µM) | 2.29 ± 0.21 µg/mL (≈ 1.45 µM) | 1.89 ± 0.04 µg/mL (≈ 1.2 µM) | more than 99% | 7.58 g | 90% | 8.00 g | effectively reduce the pathological damage to organs | 10.89 mg/g | 2.85 mg/g | 11.51 mg/g | 2.96 mg/g | 5.66 mg/g | 5.11 mg/g | disrupting the cell wall and membrane of fungi in a time‐dependent manner
